Measured values reported in PubChem BioAssay AID1918999 (Molecular Pharmacology Branch, DTP, NCI, 2023).
A number of entries come with more than one value. They are shown here; other results are not. There may be further records. The values listed for one entry are repeats across runs, samples, wells, individuals or studies. Additions like (4×) give the number of equal values in this list.

Test system: 556581-035-R-J1-PDC complex spheroid growth
Experiment: Anticancer human tumor 556581-035-R-J1-PDC patient-derived ovarian carcinoma cell line growth inhibition [AhR]
Conditions: stronger effect = lower value
From the text: Multicellular complex tumor spheroid response to aryl hydrocarbon receptor antagonists in combination with a variety of drugs and investigational agents in selected tumor cell lines
The current study was undertaken to assess response to aryl hydrocarbon receptor antagonists in combination with standard-of-care drugs and investigational agents in solid tumor complex spheroid models. Complex spheroids include a stromal component modeled by human endothelial cells (HUVEC) and fibroblasts modeled by human mesenchymal stem cells (MSCs). The concentration ranges selected for each drug and investigational agent were based upon clinically achievable concentrations if the clinical Cmax of the agent was known.
Compounds. The drugs and investigational agents: BAY 2416964 (NSC825713), GNF351 (NSC835774), CH-223191 (NSC835775), CPI-455 (NSC825282), aza-TdCyd (NSC777586), decitabine (NSC127716), belinostat (NSC758774), entinostat (NSC756642), pevonedistat (NSC761192), tazemetostat (NSC777109), talazoparib (NSC765396), olaparib (NSC753686), selinexor (NSC780203), nedisertib (M3814, NSC802822), bortezomib (NSC756655), venetoclax (NSC766270), doxorubicin (NSC123127), elimusertib (BAY189344, NSC800525), ceralasertib (AZD6738, NSC777638), TAK-243 (NSC785004), alisertib (NSC759677), etoposide (NSC141540), topotecan (NSC609699), eribulin (NSC707389), gemcitabine (NSC613327), carboplatin (NSC241240), cisplatin (NSC119875), and SN-38 (NSC673596) were obtained from the National Cancer Institute (NCI) Developmental Therapeutics Program Chemical Repository (32). The FDA-approved anticancer drug set is available from the Developmental Therapeutics Program at https://dtp.cancer.gov/organization/dscb/obtaining/available plates.htm. […] The stock solutions were prepared in dimethyl sulfoxide (DMSO, Sigma-Aldrich, St. Louis, MO, cat. D2650), except for the platinum compounds which were prepared in saline (Quality Biological, Gaithersburg, MD, cat. 114-055-101), at 800-fold the tested concentration and stored at -70 degrees C prior to their use. All drugs and investigational agents were tested over a range starting from a high concentration at or near the clinical Cmax and decreasing in half-log increments. If the clinical Cmax for an agent had not been determined, the highest concentration tested was 10 microM (Table 1).
Cell Culture. All cells were maintained in an incubator at 37 degrees C and 5% CO2 with 95% humidity. The PDC lines were cultured according to standard operating procedures established by the NCI PDMR (https://pdmr.cancer.gov). Briefly, all PDCs were thawed and cultured in Matrigel-coated flasks prepared with a working solution of 1X Ham's F-12 nutrient mix, without supplementation (Invitrogen, Waltham, MA, cat. 11765054), 100 U/mL penicillin-streptomycin (Invitrogen, cat. 15140122), and 2.5% Matrigel (Corning Inc., Corning, NY, cat. 354248) for the first three passages. All PDCs were cultured in complete DMEM/F-12 media containing advanced DMEM/F-12 (Invitrogen, cat. 12634028), 4.9% defined fetal bovine serum, heat inactivated (HyClone Laboratories Inc., Logan, UT, cat. SH30070.03HI), 389 ng/mL hydrocortisone (Sigma-Aldrich, cat. H4001), 9.7 ng/mL human EGF recombinant protein (Invitrogen, cat. PHG0313), 23.4 microg/mL adenine (Sigma-Aldrich, cat. A2786), 97.3 U/mL penicillin-streptomycin (Invitrogen, cat. 15140122), 1.9 mM L-glutamine (Invitrogen, cat. 25030081), and 9.7 microM Y-27632 dihydrochloride (Tocris Bioscience, Bristol, United Kingdom, cat. 1254). The PDCs were cultured in complete DMEM/F12 media without 10 microM Y-27632 dihydrochloride for at least two passages prior to the screen. The established cell lines NCI-H1341 and […] were cultured in DMEM/F-12, HEPES (Invitrogen, cat. 11330032), 5% defined fetal bovine serum (HyClone Laboratories Inc., cat. SH30070.03), ITS premix universal culture supplement [insulin (5 microg/mL), transferrin (5 microg/mL), and selenious acid (5 ng/mL)] […]
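Further: compound exposure lasted 7 days; 100% = DMSO vehicle control growth.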

With Cc1cncc(-c2nc(NCCc3c[nH]c4ccccc34)c3ncn(C(C)C)c3n2)c1 the viability, T/C (compound alone 0.1 µM) was 97.5, 101 (2×), 94.6, 92.4, 95.6, 91, 104, 103, 112, 121, 107, 84.9, 94.8, 88.5, 90.2, 91.3, 97.7, 94.9, 102%, the viability, T/C (compound alone 1 µM) was 94.6, 101 (2×), 126, 111, 102, 103, 96, 96.2, 109, 110, 125, 99.9, 99.2, 108, 96.4, 98.3, 105, 106, 100% and the viability, T/C (compound alone 3.16 µM) was 104, 92.1, 97.3, 116, 99.4, 117, 102, 93.5, 96.5, 107 (3×), 95.8, 98.3, 95, 96.3, 90.2, 79, 97.5, 86%.

For Cc1ccccc1N=Nc1ccc(NC(=O)c2ccnn2C)c(C)c1, the viability, T/C (compound alone 0.1 µM) was 102 (2×), 82.8, 106 (2×), 101 (3×), 96.6, 89.5, 94.5, 107, 117, 95.4, 104, 97.3, 92.2, 90.3, 94.9, 108%, the viability, T/C (compound alone 0.316 µM) was 97.4, 95.5, 107 (2×), 104, 96.2, 97.5, 94.9, 99, 106 (2×), 99.5, 101 (2×), 108, 103, 102, 80.6, 98.5, 105% and the viability, T/C (compound alone 3.16 µM) was 106, 82.9, 105, 95.6, 89.8, 103 (3×), 93.9, 98.5, 94.4, 96.8, 90.3, 94.9, 92.9 (2×), 89.2, 80.8, 86.1, 94.8%. The viability, T/C (compound alone 10 µM) was 101, 81.4 (2×), 93.4, 81, 91.9, 98.1, 92.5, 74.1, 89.6, 81.8, 90.4, 79.1, 97.1, 104, 82.2, 90.1, 95.7, 79.4, 93.8%.

In the case of CC(CO)NC(=O)c1cc(-c2ccc(Cl)cc2)nn(-c2cnn(C)c2)c1=O (stereo unspecified), the viability, T/C (compound alone 0.316 µM) was 107, 86, 93.6, 87, 94.8, 104, 101 (3×), 96.1, 96.4, 96, 93.1, 93.2, 116 (2×), 97.5, 103, 111, 102, 115%, the viability, T/C (compound alone 1 µM) was 100 (2×), 82.9, 92.3, 82.1, 107, 92.4, 102 (2×), 89.8, 113, 101, 104 (2×), 94.6, 98.3, 111, 112, 90.6, 95.4, 106% and the viability, T/C (compound alone 3.16 µM) was 104 (3×), 82.9, 87.2, 114, 91.8, 88.4, 100, 89, 103, 98.1, 102, 113, 101, 96.6, 107, 82.4, 86.2%. For the same molecule, the viability, T/C (compound alone 10 µM) was 122, 90.1, 90.2, 111 (3×), 104, 109, 93, 114, 102, 93.1, 93.8, 106, 101, 108, 107, 91.2, 89%.
